Source: the supplement of paper PMC3724861
The other results are listed elsewhere or left out.

tested on: T1, Caupolican (Caup) homeodomain DNA-binding domain; experiment: PBM E-score (8-mer, recovered from the published 9-mer minima) (E-score (dimensionless, -0.5 to 0.5)); Drosophila protein; higher = stronger relative binding preference, active = 0.31 or more
T1 sequence: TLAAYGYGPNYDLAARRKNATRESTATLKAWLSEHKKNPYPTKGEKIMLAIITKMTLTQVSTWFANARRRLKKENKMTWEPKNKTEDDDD
How it was run: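 Caup's homeodomain DNA-binding domain (residues 214-303) was made by in vitro transcription and translation and applied at 100 nM to custom-designed protein binding microarrays. Each value is an enrichment score that gives relative binding preference for a short DNA word, with higher meaning stronger. The 8-mer values were recovered from published 9-mer scores, each of which was the minimum of its two constituent 8-mer scores. A cutoff of 0.31 marks candidate sites.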

| Sequence | PBM E-score |
| --- | --- |
| CAAGTAGA | inactive: 0.0939 |
| AGGGACGA | inactive: -0.0483 |
| TGCATTAA | inactive: 0.0767 |
| TCTTACCA | inactive: 0.0412 |
| AGCTATTG | ≥ 0.087 |
| CAGGGGGG | inactive: -0.363 |
| AGGTGTTC | inactive: 0.206 |
| CCTACCGC | inactive: -0.162 |
| CGGAACAC | ≥ 0.262 |
| ATACGCGC | inactive: -0.0296 |
| AGTCGTTG | inactive: -0.0576 |
| CAGAGGGA | inactive: -0.177 |
| ATGTCGCA | active: 0.331 |
| GCGATATA | inactive: 0.0317 |
| AAGAAGAA | inactive: -0.0299 |
| ATACTTAC | inactive: 0.166 |
| GAATCAAA | inactive: 0.0109 |
| CGATGCAG | inactive: -0.112 |
| ACTTCCTG | inactive: 0.0102 |
| GCCTCAAC | inactive: -0.136 |
| TAATGCCA | ≥ 0.0429 |
| ATAAGGGG | inactive: -0.15 |
| ACTTATCA | inactive: 0.0236 |
| TCTATCCA | inactive: -0.0275 |

| Sequence | PBM E-score |
| --- | --- |
| AGTTGTCA | active: 0.315 |
| TAGACACA | inactive: 0.2 |
| CCATCCTC | inactive: -0.111 |
| CAAAGATG | inactive: -0.00598 |
| TCCTCGCA | inactive: -0.104 |
| CGCATCTC | inactive: -0.0712 |
| AGCACTCG | inactive: -0.0756 |
| ACCCGTCG | inactive: -0.194 |
| AGGAAAGA | inactive: -0.0157 |
| AACTTTGA | inactive: 0.015 |
| AGTCCTGG | inactive: -0.0612 |
| AGTTTGAC | inactive: 0.0752 |
| ATCAAGAC | inactive: 0.102 |
| CCACTTCC | inactive: -0.0264 |
| ACGGATAA | inactive: 0.0309 |
| CATTTCGG | inactive: 0.00244 |
| CTGCTGCA | inactive: -0.0929 |
| CGCAGAAC | inactive: -0.0278 |
| CAGCGACA | inactive: 0.185 |
| CGCGGAAA | inactive: -0.11 |
| GAAACACA | inactive: 0.215 |
| GACCCATC | inactive: -0.0629 |
| AGCCTCCG | inactive: -0.283 |
| TACATAGA | inactive: 0.278 |

| Sequence | PBM E-score |
| --- | --- |
| CTCTACGA | inactive: -0.00649 |
| CAGTGTCA | inactive: 0.179 |
| CCACGCTA | inactive: -0.162 |
| CCGTTTCA | inactive: -0.0372 |
| ACAGGTTG | inactive: 0.192 |
| ACGCAAGA | inactive: 0.00351 |
| GCAACCGC | inactive: -0.118 |
| ATGGAAAG | inactive: -0.0209 |
| AGAGGGGA | inactive: -0.201 |
| GTCTCACA | inactive: 0.0806 |
| AACCGGCG | inactive: -0.0557 |
| GATTGGAA | inactive: -0.0852 |
| AAGTCATA | inactive: 0.0399 |
| GATACTAA | inactive: 0.101 |
| TCCTCAAA | ≥ -0.00054 |
| CGCTCCCC | inactive: -0.314 |
| ACGATTCA | inactive: -0.00059 |
| AGGGTAAT | inactive: 0.0509 |
| AATGCATC | inactive: 0.0542 |
| AGAATATA | inactive: 0.129 |
| AACGGGCA | inactive: -0.0377 |
| AAATGCTA | inactive: 0.0285 |
| TATGCAAA | inactive: 0.121 |
| GGCCGACC | inactive: -0.208 |

| Sequence | PBM E-score |
| --- | --- |
| AATTAGAG | inactive: 0.00042 |
| CTCACTAC | inactive: 0.075 |
| AAAAAGCT | inactive: -0.189 |
| CTAGTTGA | inactive: 0.0852 |
| CCCTGTAA | inactive: 0.161 |
| ACTCAGTG | inactive: -0.068 |
| CCTCGTCA | ≥ 0.0375 |
| ATTCTCAA | inactive: 0.0425 |
| AGTACATA | active: 0.381 |
| GCAGTTCC | inactive: -0.129 |
| AGTCTAAG | inactive: 0.0473 |
| CAGCTTGA | inactive: -0.0258 |
| ACCATATC | inactive: 0.0441 |
| ATATATGG | inactive: 0.127 |
| CGAGGGCG | inactive: -0.271 |
| ACACAGAC | inactive: 0.196 |
| AGGTTAAA | inactive: 0.0382 |
| AGCCGCAG | inactive: -0.233 |
| ACTGTACC | inactive: 0.107 |
| GAGAGACA | inactive: 0.0653 |
| CGTAATCC | inactive: 0.0262 |
| AGGGGATC | inactive: -0.123 |
| AGCGACCC | inactive: -0.214 |
| ATTGTCAG | inactive: 0.157 |

| Sequence | PBM E-score |
| --- | --- |
| GTCTGCAA | inactive: -0.0406 |
| GGTAGCTA | inactive: -0.0708 |
| TAGTGACA | inactive: 0.247 |
| AGGTATAT | inactive: 0.029 |
| ACAAGCCT | inactive: 0.218 |
| AGATAAGG | inactive: -0.047 |
| ATTACATC | active: 0.374 |
| ACTTGTCC | inactive: 0.237 |
| CTAAGGTA | inactive: 0.0501 |
| AATACGTC | inactive: 0.0237 |
| CTTACGCA | inactive: 0.0487 |
| ATATTCTG | inactive: 0.125 |
| CCAGCTCG | inactive: -0.148 |
| TCATACAA | inactive: 0.163 |
| CTATTGAA | inactive: 0.0499 |
| CGGAGGCC | inactive: -0.299 |
| CACTGGCA | inactive: -0.027 |
| CGGGGACC | inactive: -0.286 |
| ATTCCGAG | inactive: -0.0451 |
| AAGCATTC | inactive: 0.0134 |
| AGTGTATG | inactive: 0.125 |
| AGGCGTCA | inactive: -0.0905 |
| ACGCTTAG | inactive: -0.0224 |
| CAGGTTCG | inactive: -0.0239 |

| Sequence | PBM E-score |
| --- | --- |
| AGACTACA | inactive: 0.243 |
| AATCGTCT | inactive: -0.00532 |
| ATTTATGC | inactive: -0.0181 |
| GACAAAAC | inactive: 0.137 |
| CTAAGGAC | inactive: -0.0836 |
| TTAAGTAA | inactive: 0.0753 |
| ACTGATGG | inactive: 0.0233 |
| ACGGGCGA | ≥ -0.131 |
| ACGTAGTA | inactive: 0.0539 |
| AGTGCCAG | inactive: -0.146 |
| ACAGGTGC | inactive: 0.0923 |
| ATGTCATC | inactive: 0.306 |
| CACGAAGA | inactive: 0.0613 |
| CCGGTACA | inactive: 0.178 |
| CAACAGCC | inactive: -0.0148 |
| CACTCGCC | inactive: -0.169 |
| GGGCCTGA | inactive: -0.248 |
| AGGGCATG | inactive: 0.0665 |
| ACCGTGAA | inactive: -0.0279 |
| AGCCTACA | inactive: 0.0993 |
| CTTGCCGA | inactive: -0.0128 |
| ATAACCTA | inactive: 0.0723 |
| ATTAGCTC | inactive: 0.0259 |
